In this assay the test system is L1 wild-type C. elegans (N2). In words: microbe, parasite or virus in culture. The settings on record: Caenorhabditis elegans; for viability at 3.9 µM: read-out: C. elegans Wild type development/viability, Dose 3.9 µM; for viability at 62.5 µM: read-out: C. elegans Wild type development/viability, Dose 62.5 µM; for viability at 125 µM: read-out: C. elegans Wild type development/viability, Dose 125 µM; for viability at 250 µM: read-out: C. elegans Wild type development/viability, Dose 250 µM; for viability at 500 µM: read-out: C. elegans Wild type development/viability, Dose 500 µM; for viability at 1000 µM: read-out: C. elegans Wild type development/viability, Dose 1000 µM.

[1] abbreviates: read-out: C. elegans (Wild type) Development & Viability Assay LC50.
Where [2] appears, read: read-out: C. elegans Wild type development/viability.
Setting [3] is: read-out: C. elegans Wild type development/viability, Dose 15.6 µM.
[4] abbreviates: read-out: C. elegans Wild type development/viability, Dose 31.3 µM.
[5] abbreviates: read-out: C. elegans Wt viability log10 LC50 (converted).
Setting [6] is: 144 h, read-out: C. elegans (Wild type) Development & Viability Assay LC50.
Where [7] appears, read: read-out: C. elegans Wild type development/viability, Dose 1 µM.
[8] abbreviates: read-out: C. elegans Wild type development/viability, Dose 2 µM.

Like-named read-outs stand apart in the source and are kept apart here.

Turning to `Cc1ccc(OCCn2cnc3ccccc32)c(C)c1` [Compound 7706808], the viability at 3.9 µM is 98.2%, the viability at 62.5 µM came out at 100%, the viability at 125 µM worked out at 100% and the viability at 250 µM came out at 96.5%. For the same molecule, the viability at 500 µM worked out at 100% and the viability at 1000 µM is 88.8%. For the same molecule, the LC50 under setting [1] was greater than 1000 µM. Under setting [2], the viability at 1 µM is 97.3% and the viability at 2 µM was 97.3%. Besides, under setting [3], the viability at 15.6 µM was determined as 98.3%. The viability at 31.3 µM under setting [4] turned out to be 89.4%. Further, the LC50 (read-out: C. elegans Wt viability LC50) is greater than 500 µM. Under setting [5], the LC50 is greater than 500 µM.

Consider `Cc1ccccc1OCCCCn1cnc2ccccc21` [Compound 7732524], for which the viability at 62.5 µM came out at 54.4%, the viability at 125 µM was 4.4%, the viability at 250 µM was determined as 5.1% and the viability at 500 µM came out at 2%. The viability at 1000 µM is 1.8%. The LC50 under setting [6] stood at 48.4 µM. Further, the LC50 under setting [1] came to 64.9 µM. Further, under setting [3], the viability at 15.6 µM worked out at 100%. For the same molecule, the viability at 31.3 µM under setting [4] came out at 99.5%. Moreover, the LC50 under setting [5] is 64.9 µM.

For the molecule `Nc1nc2ccccc2n1CCCOc1ccccc1` [Compound 7915320], the LC50 by setting is: under setting [1], 162 µM; under setting [5], 162 µM.

With `Cc1ccccc1OCCCn1c(C)nc2ccccc21` [Compound 7916923], the viability at 3.9 µM was found to be 97.3%, the viability at 62.5 µM stood at 97.4%, the viability at 125 µM is 87.7% and the viability at 250 µM stood at 5.9%. Also, the viability at 500 µM is 4.1% and the viability at 1000 µM came out at 3.6%. For the same molecule, the LC50 under setting [1] was determined as 160 µM. Also, under setting [7], the viability at 1 µM came to 100%. Moreover, the viability at 2 µM under setting [8] worked out at 99.3%. Further, the viability at 15.6 µM under setting [3] worked out at 100%. Also, the viability at 31.3 µM under setting [4] amounted to 93.3%. For the same molecule, under setting [5], the LC50 was 160 µM.

In the case of `Brc1ccccc1OCCCCn1cnc2ccccc21` [Compound 7924576], the viability at 3.9 µM stood at 96%, the viability at 62.5 µM came to 63.3%, the viability at 125 µM was 4.4% and the viability at 250 µM came to 4.3%. The viability at 500 µM amounted to 4.7% and the viability at 1000 µM is 1.8%. In addition, the LC50 under setting [1] was found to be 68.1 µM. Further, the viability at 1 µM under setting [7] was 98.1%. In addition, the viability at 2 µM under setting [8] was 99.3%. Moreover, under setting [3], the viability at 15.6 µM stood at 96.4%. Moreover, the viability at 31.3 µM under setting [4] is 82%. In addition, under setting [5], the LC50 was 68.1 µM.

As to `FC(F)(F)c1cccc(OCCCCn2cnc3ccccc32)c1` [Compound 7925004], the viability at 3.9 µM came to 84.1%, the viability at 62.5 µM was 8.1%, the viability at 125 µM is 2% and the viability at 250 µM came to 1.4%. Moreover, the viability at 500 µM stood at 2% and the viability at 1000 µM is 0.428%. Moreover, under setting [1], the LC50 was found to be 53.8 µM. Under setting [2], the viability at 15.6 µM came out at 90.3%. Also, the viability at 1 µM under setting [7] is 95.3%. The viability at 2 µM under setting [8] is 95%. Moreover, under setting [4], the viability at 31.3 µM came out at 92.5%. Also, the LC50 under setting [5] is 53.8 µM.

In the case of `CCc1cc(OCCn2cnc3ccccc32)ccc1Cl` [Compound 7925288], the viability at 3.9 µM stood at 100%, the viability at 62.5 µM stood at 6.7%, the viability at 125 µM turned out to be 4.2% and the viability at 250 µM was 1.7%. Moreover, the viability at 500 µM was 2.5% and the viability at 1000 µM was determined as 0.7%. For the same molecule, the LC50 under setting [1] was determined as 45.6 µM. The viability at 1 µM under setting [7] stood at 100%. Also, under setting [8], the viability at 2 µM was found to be 97.7%. Besides, the viability at 15.6 µM under setting [3] is 99.4%. Moreover, the viability at 31.3 µM under setting [4] was 95.9%. Further, the LC50 under setting [5] is 45.6 µM.

`Cc1ccc(SCCCCn2cnc3ccccc32)cc1` [Compound 7925333]: the viability at 3.9 µM came out at 100%, the viability at 62.5 µM came to 100%, the viability at 125 µM came to 100% and the viability at 250 µM stood at 22.9%. Moreover, the viability at 500 µM was 2.7% and the viability at 1000 µM is 2%. Moreover, the LC50 under setting [1] stood at 227 µM. For the same molecule, the viability at 1 µM under setting [7] was 100%. The viability at 2 µM under setting [8] was found to be 97.8%. Besides, under setting [3], the viability at 15.6 µM came to 100%. The viability at 31.3 µM under setting [4] is 96.9%. Besides, the LC50 under setting [5] was 226 µM.

Consider `Clc1ccc(SCCCCn2cnc3ccccc32)cc1` [Compound 7925515], for which the viability at 3.9 µM worked out at 98.8%, the viability at 62.5 µM is 37.2%, the viability at 125 µM is 5.6% and the viability at 250 µM amounted to 2.3%. For the same molecule, the viability at 500 µM came to 3% and the viability at 1000 µM came to 1.4%. Moreover, the LC50 under setting [1] came to 51.3 µM. Under setting [7], the viability at 1 µM turned out to be 99.5%. Under setting [8], the viability at 2 µM amounted to 98.2%. Moreover, under setting [3], the viability at 15.6 µM was 99.8%. Also, the viability at 31.3 µM under setting [4] was found to be 80.3%. Under setting [5], the LC50 was 51.3 µM.

With `Clc1ccccc1OCCCCn1cnc2ccccc21` [Compound 7925804], the viability at 3.9 µM came to 97.7%, the viability at 62.5 µM stood at 90.8%, the viability at 125 µM is 6.2% and the viability at 250 µM stood at 3.9%. In addition, the viability at 500 µM turned out to be 1.6% and the viability at 1000 µM turned out to be 1%. Moreover, under setting [1], the LC50 worked out at 85.9 µM. Moreover, the viability at 1 µM under setting [7] amounted to 99.2%. Under setting [8], the viability at 2 µM stood at 97.8%. Under setting [3], the viability at 15.6 µM came out at 97.5%. For the same molecule, under setting [4], the viability at 31.3 µM is 97.2%. In addition, the LC50 under setting [5] was 85.9 µM.

Consider `Cc1ccc(SCCCn2cnc3ccccc32)cc1` [Compound 7926035], for which the viability at 3.9 µM came to 93.8%, the viability at 62.5 µM stood at 84.3%, the viability at 125 µM is 10.2% and the viability at 250 µM turned out to be 3.5%. In addition, the viability at 500 µM is 4.5% and the viability at 1000 µM was found to be 4.9%. Further, the LC50 under setting [1] worked out at 83.4 µM. In addition, the viability at 1 µM under setting [7] worked out at 96.2%. Moreover, the viability at 2 µM under setting [8] stood at 96.1%. The viability at 15.6 µM under setting [3] turned out to be 97.2%. Besides, under setting [4], the viability at 31.3 µM came to 93.1%. The LC50 under setting [5] was 83.4 µM.

As to `CC(C)Oc1cccc(OCCn2cnc3ccccc32)c1` [Compound 7926496], the viability at 3.9 µM worked out at 100%, the viability at 62.5 µM was determined as 100%, the viability at 125 µM stood at 98.7% and the viability at 250 µM was determined as 69.1%. The viability at 500 µM came to 36.5% and the viability at 1000 µM turned out to be 4.2%. For the same molecule, the LC50 under setting [1] was 375 µM. The viability at 31.3 µM under setting [2] came to 91.5%. Also, the viability at 1 µM under setting [7] turned out to be 95.1%. The viability at 2 µM under setting [8] worked out at 96.1%. For the same molecule, the viability at 15.6 µM under setting [3] came out at 100%. The LC50 under setting [5] was 375 µM.

As to `Cn1c(Cc2ccc(Cl)cc2)nc2ccccc21` [Compound 9005666], the LC50 under setting [1] was determined as 193 µM and the LC50 under setting [5] was 193 µM.

Turning to `COc1cc2c(cc1OC)C(c1ccc(-c3ccc(Cl)c(Cl)c3)o1)=NCC2` [NPD3577], the LC50 under setting [6] is greater than 100 µM.

Regarding `COc1cc2c(cc1OC)C(/C=C/c1ccc(N(C)C)cc1)=NCC2` [NPD6303], the LC50 under setting [6] is greater than 100 µM.

Regarding `COc1cc2c(cc1OC)C(C(C)c1ccc(CC(C)C)cc1)=NCC2` (stereo not drawn) [NPD10504], the LC50 under setting [6] was greater than 100 µM.

One may read the LC50 as the concentration that kills 50% of the test population.

These data come from article PMC11079024, “Identification of a family of species-selective complex I inhibitors as potential anthelmintics” (Nature Communications, 2024).
